# From PubChem BioAssay AID1030 (National Center for Advancing Translational Sciences (NCATS), 2008)
# The whole screen tested about 220,000 compounds, of which about 16,000 (7.3%) were called active. Inconclusive means that the source gave no clear call. Such entries were picked first, then a sample of the others. Calls follow the shape of the dose curve; as a rule, active = well fitted inhibition curve with a large enough effect (not every such curve was filed as active); inconclusive = small, poorly fitted or top-dose-only effect, or another doubt; inactive = no such curve, though single readings can be large or run the other way. Potencies of inconclusive entries are left out as doubtful fits.
# Target: Aldehyde dehydrogenase 1A1 (Homo sapiens) (UniProt P00352)
# Test: qHTS Assay for Inhibitors of Aldehyde Dehydrogenase 1 (ALDH1A1);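 as to activity, negative = inhibition: plate controls were no enzyme wells and a reference inhibitor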
# Conditions: Purified ALDH1A1, NADH fluorescence, propionaldehyde substrate; series mostly up to 75.3 µM
# Potency is read from the fitted curve at half-maximal effect; tags tell the direction and shape of the fitted curve.
# Chain of UniProt P00352 (P00352 whole entry, looked up): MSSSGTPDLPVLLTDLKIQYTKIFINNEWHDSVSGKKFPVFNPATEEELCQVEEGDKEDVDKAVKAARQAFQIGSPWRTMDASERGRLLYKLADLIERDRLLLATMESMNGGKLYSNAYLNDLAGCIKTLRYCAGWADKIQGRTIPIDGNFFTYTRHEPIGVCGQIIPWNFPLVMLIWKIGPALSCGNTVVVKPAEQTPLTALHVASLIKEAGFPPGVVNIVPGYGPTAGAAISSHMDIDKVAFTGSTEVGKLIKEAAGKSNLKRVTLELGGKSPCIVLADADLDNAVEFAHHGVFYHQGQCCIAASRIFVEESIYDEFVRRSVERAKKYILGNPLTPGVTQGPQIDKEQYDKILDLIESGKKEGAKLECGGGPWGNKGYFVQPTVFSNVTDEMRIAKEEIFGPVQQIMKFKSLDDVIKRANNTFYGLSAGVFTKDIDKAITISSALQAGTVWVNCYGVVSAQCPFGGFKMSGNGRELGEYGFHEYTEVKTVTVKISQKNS
SMILES,Potency,"activity, negative = inhibition"
CCOC(=O)c1ccc(-n2c(=S)sc3c(=O)[nH]c(C)nc32)cc1,active: 7.08 µM,–
CC1=NN(c2cccc(C(=O)O)c2)C(=O)/C1=C\C=C/c1ccccc1,"inconclusive [inhibitor, single point]",–
Cc1cc(C)n(C(C[N+](=O)[O-])c2ccc(Cl)cc2)n1 (centres undefined),"inconclusive [inhibitor, partial curve]",–
O=C(Nc1ccc(F)cc1)N1CCN(c2nc3ccccc3s2)CC1,"inconclusive [inhibitor, single point]",–
CCc1ccc(C(=O)NC(=S)Nc2ccc(N3CCOCC3)cc2)cc1,active: 11.2 µM,–
CCCCc1n[nH]c2c1/C(=N/O)CC(C)(C)C2,"inconclusive [inhibitor, single point]",–
O=C(Nc1cccc(-c2nc3ccccc3s2)c1)c1cc(=O)c2ccccc2o1,"inconclusive [inhibitor, single point]",–
O=C(NCCc1c[nH]c2ccccc12)c1ccc(-n2cnnn2)cc1,inactive,–
COc1cc(/C=C/C(=O)NCCN2CCOCC2)cc(OC)c1OC,"inconclusive [inhibitor, single point]",–
O=C(Nc1cccc2ncccc12)c1ccc(OCc2ccccc2)cc1,inactive,–
Cc1noc(C)c1S(=O)(=O)N1CCCC(C(=O)Nc2nccs2)C1 (centres undefined),"inconclusive [inhibitor, single point]",–
C=CCNC(=O)NC(=O)CSc1nnc(C(F)(F)F)n1C,inactive,–
CCOC(=O)/C=C(\C)N1N=C(c2ccccc2)CC1c1ccccc1 (centres undefined),active: 1 µM,–
CC1CCC(C(C)C)C(OC(=O)CSc2nnc(N)s2)C1 (centres undefined),"inconclusive [inhibitor, partial curve]",–
CC(C)(C)C1CCC2(CC1)CCN(CCCN1CCOCC1)CC2,–,inactive: -5.53% [at 13.5 µM]
Cc1ccc(-c2nnc(N(C)C(=O)c3cccnc3)s2)cc1,"inconclusive [inhibitor, partial curve, poor fit]",–
COc1cccc(Cn2c(=O)c(-c3ccccc3)nc3cnc(OC)nc32)c1,"inconclusive [inhibitor, partial curve]",–
O=C(CSc1nnc(-c2ccc(S(=O)(=O)N3CCCC3)cc2)o1)NCc1ccco1,"inconclusive [inhibitor, single point]",–
CCOC(=O)c1ccc(N/C=C/C(=O)c2ccco2)cc1,"inconclusive [inhibitor, single point]",–
c1ccc2c(-n3cccn3)cccc2c1,inactive,–
O=C1CC(=O)N(Cc2cccs2)C(=O)N1,"inconclusive [inhibitor, partial curve]",–
COC(=O)c1c(-c2ccccc2)csc1N,"inconclusive [inhibitor, single point]",–
CC(C)CN1C(=O)/C(=C/c2ccco2)NC1=S,active: 3.98 µM,–
CN(C)c1ccc2c(O)cc(=O)n(C)c2c1,"inconclusive [inhibitor, partial curve]",–
CCNC(=O)CC1SC(=Nc2ccc(Cl)cc2)N(CC)C1=O (centres undefined),inactive,–

SMILES,Potency,"activity, negative = inhibition"
O=C(/C=C/c1ccc(O)c(O)c1)OC(Cc1ccc(O)c(O)c1)C(=O)O (centres undefined),inactive,–
CCCN1Cc2cccc(C(=O)NC(CC(=O)OCC)c3ccc(OC(C)C)cc3)c2C1=O (centres undefined),"inconclusive [inhibitor, single point]",–
CCOc1ccc(C(C)NC(=O)c2ccccc2F)cc1 (centres undefined),inactive,–
CC1CCC(C(C)C)C(OC(=O)COC(=O)c2ccc(=O)[nH]c2)C1 (centres undefined),inactive,–
COCCNS(=O)(=O)c1ccc(OCC(=O)OC)c(Cl)c1,inactive,–
O=C(c1ccco1)N1CCN(C(=O)c2cc3c(s2)-c2ccccc2OC3)CC1,"inconclusive [inhibitor, partial curve]",–
Cc1cc(=O)oc2cc(OCC(=O)OCC(=O)N3CCC(C)CC3)ccc12,"inconclusive [inhibitor, single point]",–
C=CCON/C(CCC)=C1\C(=O)C(C(=O)OC)C(C)(C)CC1=NC (centres undefined),inactive,–
O=c1[nH]n2c(=O)c3c([nH]c2c1N=Nc1ccccc1)CCC3,inactive,–
O=C(CN1C(=O)CC(c2ccccc2)S(=O)(=O)c2ccccc21)N1CCCCC1 (centres undefined),"inconclusive [inhibitor, single point]",–
COc1ccc(-c2ccc(CO)o2)cc1N,"inconclusive [inhibitor, single point]",–
O=C(NCc1ccc2c(c1)OCO2)C1CCC(CNS(=O)(=O)c2ccccc2)CC1 (centres undefined),active: 6.31 µM,–
BrC(=C\c1ccccc1)/C=N/Nc1nc(N2CCOCC2)nc(N2CCOCC2)n1,inactive,–
Cc1ccc2nc(NC(=O)CSc3nnc(C)c(=O)n3N)sc2c1,"inconclusive [inhibitor, single point]",–
CCC(Sc1ncccc1C(=O)OCCN1CCCC1=O)C(=O)NCc1ccco1 (centres undefined),"inconclusive [inhibitor, single point]",–
CC1CN(CCCCOc2cccc(Oc3ccccc3)c2)CC(C)O1 (centres undefined),"inconclusive [inhibitor, single point]",–
Cc1cccc(CSc2nc3c(c(=O)n2C)SCC3)c1,"inconclusive [inhibitor, single point]",–
Cc1ccc(-c2nnc(NC3CCCCC3)c3ccccc23)cc1S(=O)(=O)N1CCN(C)CC1,"inconclusive [inhibitor, partial curve]",–
Cc1ccc(C)cc1,inactive,–
COc1ccccc1-c1ccc2ncnc(NCc3cccnc3)c2c1,"inconclusive [inhibitor, partial curve]",–
C/C(=N\NC(=O)c1cccc(N/N=C(\C)c2ccccc2)c1)c1ccccc1,active: 11.9 µM,–
O=C(CN1CCN(c2ccccn2)CC1)NC1CCCC1,active: 25.1 µM,–
CCOC(=O)/C(C#N)=C/N=c1ccc(C)cn1C,"inconclusive [inhibitor, single point]",–
COc1ccc(C)cc1NC(=O)CN(c1ccccc1F)S(C)(=O)=O,inactive,–
